58 compounds from publication PMC4336329 (PLoS ONE, 2015) can be followed below.

The campaign covered roughly 310,000 compounds. About 2,200 (0.71%) showed an effect of 50% or more. Effects have a minus sign here. The list shows a part of the results.

human ether-à-go-go-related gene (hERG) potassium channel, sequence (Q12809 whole entry, looked up): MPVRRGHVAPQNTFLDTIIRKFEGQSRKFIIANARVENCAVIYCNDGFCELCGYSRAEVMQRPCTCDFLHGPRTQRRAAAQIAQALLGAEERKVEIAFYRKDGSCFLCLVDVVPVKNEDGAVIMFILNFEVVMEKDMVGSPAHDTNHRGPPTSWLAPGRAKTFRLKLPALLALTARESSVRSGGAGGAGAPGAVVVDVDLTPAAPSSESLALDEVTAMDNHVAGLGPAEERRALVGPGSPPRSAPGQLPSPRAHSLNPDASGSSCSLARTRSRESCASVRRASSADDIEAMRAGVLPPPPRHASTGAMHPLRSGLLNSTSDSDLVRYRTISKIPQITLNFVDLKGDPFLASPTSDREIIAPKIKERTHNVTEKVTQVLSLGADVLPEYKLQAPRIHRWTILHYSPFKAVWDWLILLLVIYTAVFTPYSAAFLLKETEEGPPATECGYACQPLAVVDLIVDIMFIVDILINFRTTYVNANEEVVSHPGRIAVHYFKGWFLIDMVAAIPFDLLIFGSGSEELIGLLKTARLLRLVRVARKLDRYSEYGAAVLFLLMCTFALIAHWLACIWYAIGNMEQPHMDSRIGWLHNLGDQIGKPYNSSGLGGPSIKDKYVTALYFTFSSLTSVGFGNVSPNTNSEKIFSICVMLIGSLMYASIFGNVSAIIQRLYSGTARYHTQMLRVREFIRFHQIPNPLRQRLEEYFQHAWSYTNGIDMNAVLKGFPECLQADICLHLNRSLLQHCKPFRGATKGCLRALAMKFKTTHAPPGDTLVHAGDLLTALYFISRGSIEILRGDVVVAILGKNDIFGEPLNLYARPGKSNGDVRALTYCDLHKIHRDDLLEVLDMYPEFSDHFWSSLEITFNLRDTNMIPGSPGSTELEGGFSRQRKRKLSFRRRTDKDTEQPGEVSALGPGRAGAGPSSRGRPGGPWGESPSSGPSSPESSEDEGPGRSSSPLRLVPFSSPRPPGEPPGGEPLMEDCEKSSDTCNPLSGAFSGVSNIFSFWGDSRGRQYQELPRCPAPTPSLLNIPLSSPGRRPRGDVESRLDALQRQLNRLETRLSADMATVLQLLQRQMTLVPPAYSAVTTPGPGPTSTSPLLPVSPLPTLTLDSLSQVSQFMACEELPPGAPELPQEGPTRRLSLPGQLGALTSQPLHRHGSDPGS

The experiment addresses human ether-à-go-go-related gene (hERG) potassium channel (human, UniProt Q12809). Description: primary screen, population patch clamp on CHO cells stably expressing hERG.
With `O=C(CCCCCNc1nc(=S)[nH]c2ccccc12)NCc1ccccc1Cl`, the “hERG current change (%, negative = inhibition) at 1uM” value came out at 5.66%.
The value for `O=C(Nc1ccc(Cl)c(Cl)c1)N(CCCN1CCOCC1)Cc1cccnc1` was -5.32%; that for `O=C(NCc1cccnc1)C(Cl)(Cl)Cl` was -1.11%; that for `CCOC(=O)c1c(NC(NC(=O)C(C)C)C(Cl)(Cl)Cl)sc2c1CCC2` (stereo not shown) was 6.26%.
The figure for `Cc1ccc(-c2ccc(C3C(C#N)=C(N)Oc4n[nH]c(C)c43)o2)cc1` (stereo not shown) is 14.9%; for `Cc1nc2ccc(NC(=O)N3CCOCC3)cc2s1` it is 15.7%; for `O=C(OCC(=O)N1CCCCC1)c1ccccc1SCC(=O)N1CCCCC1` it is 1.49%.
Consider `Cn1c(=O)[nH]c(=O)c2c1nc(NCc1ccccc1)n2CCCc1ccccc1`, for which the “hERG current change (%, negative = inhibition) at 1uM” value is given as 6.85%.
The figure for `O=C(Cc1ccc([N+](=O)[O-])cc1)NC(C(=O)[O-])C(O)c1cccc([N+](=O)[O-])c1.[Na+]` (stereo not shown) is 4.75%.
For the compound `O=C(NC(=S)Nc1cccnc1)c1cccc(Br)c1`, the “hERG current change (%, negative = inhibition) at 1uM” value was 15.7%.
The figure for `CCOc1ccc(C(=O)NCC(=O)OCc2c(F)cccc2Cl)cc1` is 6.64%; for `CCOc1ccc(C(=O)NCC(=O)NCC(c2ccco2)N2CCCCC2)cc1OCC` (stereo not shown) it is 11%.
Regarding `Cc1nn(-c2ccccc2)c(Cl)c1/C=N/NC(=O)c1ccccc1F`, the “hERG current change (%, negative = inhibition) at 1uM” value was 13%.
As for `CSc1nsc(SC)c1NC(=O)OCC1CCCO1` (stereo not shown), the “hERG current change (%, negative = inhibition) at 1uM” value amounted to 16%.
The figure for `CCOC(=O)c1oc2ccc(Cl)cc2c1NC(C)=O` is 11.1%; for `COc1ccc(CC(=O)OCC(=O)Nc2ccc3c(c2)OCO3)cc1` it is 9.83%.
The value for `CC(=O)OCC(=O)C1CCC2C3CC=C4CC(O)CCC4(C)C3CCC12C` (stereo not shown) was 18%; that for `COc1ccc(/C(N)=N/OC(=O)CC2CCCCC2)cc1` was 9.92%; that for `COc1ccc(CCC(C)Nc2cccc(C)c2)cc1` (stereo not shown) was 0.16%.
The figure for `O=C(NCCc1ccccc1)c1ccc2c(c1)OCO2` is 19.3%.
With `CCCCn1c(-c2ccc(Cl)c(Cl)c2)nc2cc3[nH]c(=O)c(C(C)C)nc3cc21`, the “hERG current change (%, negative = inhibition) at 1uM” value came out at 5.67%.
The value for `NC(=S)NNC(=O)/C(=C/c1ccc(Br)cc1)NC(=O)c1ccccc1` was 26.7%; that for `CCCNC(=O)c1ccc(N2CCC3(CC2)CC(c2cccc(Br)c2)=NO3)c([N+](=O)[O-])c1` was 2.54%.
Consider `COCCN(C(=O)COC(=O)CCCOc1ccc(OC)cc1)c1c(N)n(Cc2ccccc2)c(=O)[nH]c1=O`, for which the “hERG current change (%, negative = inhibition) at 1uM” value was determined as 6.56%.
Consider `Cn1ncc(Br)c1NC(=O)Nc1ccc(Cl)cc1`, for which the “hERG current change (%, negative = inhibition) at 1uM” value is 11.8%.
The figure for `CC(=O)c1cc2c(cc1NS(=O)(=O)c1ccccc1Br)OCO2` is 13.3%.
Turning to `CC1Oc2ccccc2C=C1/C=N\NC(=O)c1cccnc1` (stereo not shown), the “hERG current change (%, negative = inhibition) at 1uM” value was 5.91%.
The value for `CCCCOC(=O)Oc1ccc2c(=O)c(Oc3cc(C)cc(C)c3)coc2c1` was 10.4%; that for `O=C(Nc1ccc(Cl)cc1N1CCOCC1)C1CCCO1` (stereo not shown) was 18.7%.
As to `O=C(COC(=O)C1CCN(/C=C/C(=O)C(F)(F)F)CC1)Nc1cccc(F)c1`, the “hERG current change (%, negative = inhibition) at 1uM” value is recorded as -3.44%.
For `Cc1cc(Cl)c2oc(C(=O)NCC(C)(C)N3CCOCC3)c(C)c2c1`, the “hERG current change (%, negative = inhibition) at 1uM” value is on record as 5.01%.
The value for `O=C(Nc1ccc(Cl)cc1)Nc1ccc(Oc2cccnc2)nc1` was 15.8%; that for `CCNC(=S)N(CCc1c(C)[nH]c2ccc(Cl)cc12)Cc1ccco1` was 6.26%.
In the case of `COc1ccc(CN(C(=O)c2cc3ccccc3oc2=O)C2CCS(=O)(=O)C2)cc1OC` (stereo not shown), the “hERG current change (%, negative = inhibition) at 1uM” value is on record as 7.67%.
The figure for `CC1(c2ccco2)NC(=O)NC1=O` (stereo not shown) is 8.07%; for `N#CCCN(C(=O)c1ccc2c(=O)n3c(nc2c1)CCCCC3)c1ccccc1` it is 12.6%; for `COc1cc(OC)c(S(=O)(=O)Nc2ccc(C(=O)N3CCCC3)cc2)cc1NC(C)=O` it is 9.62%.
The figure for `NC(=O)C1CCN(C(=O)CNC(=O)c2ccc(Br)o2)CC1` is -0.324%; for `CC1CCN(C(=O)CSc2nncn2C)CC1` it is 5.63%.
The figure for `CCCNS(=O)(=O)c1cc(Cl)ccc1OC` is 16.3%; for `O=C(O)/C(=C\c1cn(-c2ccccc2)nc1-c1ccc(Cl)cc1)NC(=O)c1ccccc1` it is 5.29%.
On to `CCN(CC(=O)NCc1ccncc1)S(=O)(=O)c1ccc(OC)cc1`, for which the “hERG current change (%, negative = inhibition) at 1uM” value worked out at 5.64%.
The value for `CCCCN(C(=S)NC(=O)c1ccccc1)c1c(N)n(Cc2ccccc2)c(=O)[nH]c1=O` was 8.06%.
`O=C(c1coc(=O)c(Br)c1)N1CCCc2ccccc21`: the “hERG current change (%, negative = inhibition) at 1uM” value stood at 9.4%.
As for `Cc1cccc(/C=N/n2c(C)cc(C)c(C#N)c2=O)c1`, the “hERG current change (%, negative = inhibition) at 1uM” value amounted to 11.9%.
The figure for `Cc1ccc(Nc2nnc(SCC(=O)c3ccc(Br)s3)s2)c(C)c1` is 11.5%.
The figure for `COc1ccc(N2CC(C(=O)N3CCN(C)CC3)CC2=O)cc1` (stereo not shown) is 15.6%.
The value for `CCC(=O)NC(c1ccccc1)c1c(O)ccc2ccccc12` (stereo not shown) was 13.7%.
As to `COC(=O)c1sc(NC(=O)CSc2nnc(C(C)C)n2C)nc1C`, the “hERG current change (%, negative = inhibition) at 1uM” value is on record as 5.9%.
The figure for `N#Cc1nc(-c2ccc(OCc3ccccc3)cc2)oc1NCc1ccco1` is 11.5%.
For the compound `COc1ccc(NC(=O)/C=C/C(=O)O)cc1Cl`, the “hERG current change (%, negative = inhibition) at 1uM” value came to 12.7%.
The figure for `COc1cc(C(=O)OCC(=O)NCCC2=CCCCC2)ccc1OCC(C)C` is 10.8%; for `CC(=O)Nc1ccc(C(=O)CS(=O)(=O)c2ccc(C)cc2)cc1` it is -1.38%; for `Cc1cccc2nc(CSc3nc4ccccc4o3)cn12` it is -2.75%.
`Cc1ccsc1CN(C)C(=O)c1ccc(Oc2ccccc2)cc1`: the “hERG current change (%, negative = inhibition) at 1uM” value amounted to 6.61%.
Regarding `O=C(/C=C/c1cccc(Br)c1)OCC(=O)N1CCN(c2ccccc2)CC1`, the “hERG current change (%, negative = inhibition) at 1uM” value is listed as 8.9%.
Turning to `Cc1ccc(Nc2nc3nonc3[nH]c2=O)cc1`, the “hERG current change (%, negative = inhibition) at 1uM” value was 14.7%.
The figure for `Cc1cc2ccccc2c(=O)n1CC(=O)Nc1ccc2c(c1)OCCO2` is 7.65%.
